Screen size: about 310,000 compounds; about 14,000 (4.5%) showed an effect of 50% or more. The effect is printed as a negative number. The list shows a part of the results.
Target: human ether-à-go-go-related gene (hERG) potassium channel (human, UniProt Q12809)
Test: primary screen, population patch clamp on CHO cells stably expressing hERG
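Also: peak tail current of the secondary pulse compared with the same well before compound.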

Chain of human ether-à-go-go-related gene (hERG) potassium channel (Q12809 whole entry, looked up): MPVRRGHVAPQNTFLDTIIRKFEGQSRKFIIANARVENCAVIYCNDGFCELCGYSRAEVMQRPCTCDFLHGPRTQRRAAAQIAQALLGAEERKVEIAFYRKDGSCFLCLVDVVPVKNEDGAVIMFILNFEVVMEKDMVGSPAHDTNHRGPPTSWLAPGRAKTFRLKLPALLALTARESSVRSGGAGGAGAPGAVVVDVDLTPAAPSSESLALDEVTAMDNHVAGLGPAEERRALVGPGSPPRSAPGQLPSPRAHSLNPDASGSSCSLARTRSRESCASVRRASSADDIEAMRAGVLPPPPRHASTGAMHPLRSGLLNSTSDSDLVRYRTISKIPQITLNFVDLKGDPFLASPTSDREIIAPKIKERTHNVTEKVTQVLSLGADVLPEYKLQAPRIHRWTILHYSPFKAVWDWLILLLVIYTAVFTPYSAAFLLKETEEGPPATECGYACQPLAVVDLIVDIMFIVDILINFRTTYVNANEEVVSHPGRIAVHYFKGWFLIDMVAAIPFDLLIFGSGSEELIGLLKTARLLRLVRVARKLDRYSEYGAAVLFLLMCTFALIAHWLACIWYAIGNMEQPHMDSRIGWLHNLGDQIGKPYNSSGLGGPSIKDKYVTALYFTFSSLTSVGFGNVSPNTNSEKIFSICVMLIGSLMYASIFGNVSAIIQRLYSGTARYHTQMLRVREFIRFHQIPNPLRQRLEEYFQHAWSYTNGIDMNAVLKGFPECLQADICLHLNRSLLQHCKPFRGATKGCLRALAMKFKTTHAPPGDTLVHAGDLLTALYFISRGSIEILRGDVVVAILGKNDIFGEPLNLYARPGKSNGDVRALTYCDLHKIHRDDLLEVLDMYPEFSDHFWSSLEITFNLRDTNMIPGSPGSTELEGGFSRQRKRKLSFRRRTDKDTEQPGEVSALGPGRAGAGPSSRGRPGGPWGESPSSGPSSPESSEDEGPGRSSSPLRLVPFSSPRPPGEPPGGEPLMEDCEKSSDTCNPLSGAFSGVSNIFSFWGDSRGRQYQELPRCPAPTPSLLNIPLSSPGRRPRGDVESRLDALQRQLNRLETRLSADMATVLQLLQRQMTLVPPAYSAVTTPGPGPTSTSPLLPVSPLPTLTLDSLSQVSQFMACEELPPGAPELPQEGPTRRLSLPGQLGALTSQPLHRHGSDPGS

Structure (SMILES)	hERG current change (%, negative = inhibition) at 10uM [%]
O=C(COc1ccccc1F)N1CCN(S(=O)(=O)/C=C/c2ccccc2)CC1	-2.05
Nc1nc(Br)c2ccccc2c1-c1ccc(F)cc1	-2.59
Cc1nnc(NC(=O)c2ccc(C)c(S(=O)(=O)N3CCCCCC3)c2)s1	18.9
O=S(=O)(c1ccc(Cl)cc1)N1CCC2(CC1)CO2	4.7
CCOc1ccccc1N(CC(=O)OC)S(C)(=O)=O	12.9
CCOC(=O)c1c(-c2ccc(OC)cc2)cn2ccccc12	0.601
O=C(NCC1CCS(=O)(=O)C1)NCC1CCS(=O)(=O)C1 (stereo not shown)	3.67
Cc1ccc(S(=O)(=O)c2c(C)nn(C(C)(C)C)c2OC(=O)CC(C)C)cc1	-0.853
COc1ccc(/C=C/C(=O)Nc2ccccc2C(=O)NCC(c2ccc(OC)cc2)N(C)C)cc1 (stereo not shown)	-49.6
CCn1ccnc1C(O)c1cccc(OC)c1OC (stereo not shown)	13.6
O=C(c1cn(CC(=O)N2CCCCC2)c2ccccc12)C1CC1	7.66
Cc1cc(NC(c2ccc(Cl)cc2)c2ccc3cccnc3c2O)no1 (stereo not shown)	-6.4
CCN(CC)CCNC(=O)c1sc2nc(-c3ccccc3)cn2c1C	-67.4
COc1cc(-c2nnc(SC(C)C(=O)Nc3c(C)n(C)n(-c4ccccc4)c3=O)o2)cc(OC)c1OC (stereo not shown)	-7.75
Cc1ncc(CN2CCCC(C(=O)c3ccc(C(C)(C)C)cc3)C2)s1 (stereo not shown)	-72.8
C=CCNC(=S)Nc1ccccc1	-8.73
O=C(CCOc1ccccc1F)N1CCN(c2ccccc2O)CC1	-6.27
NC(=O)C1CCN(CC(=O)Nc2cc(Cl)ccc2Oc2ccccc2)CC1	-67
O=C1OCCC1Sc1nnc(-c2ccc3c(c2)OCO3)o1 (stereo not shown)	12.5
COCCN(C(=O)Nc1ccc(OC)cc1OC)C1CCN(C(C)=O)CC1	7.58
COc1cccc(CNC(=O)CCCSc2ccccc2)c1	-10.3
O=C(Nc1ccc(F)cc1)N1CCC(c2nc3c(nnn3Cc3cccc(Cl)c3)c(=O)[nH]2)CC1	-4.28

Structure (SMILES)	hERG current change (%, negative = inhibition) at 10uM [%]
CC(C)c1ccc(N(C(=O)c2ccc3c(c2)OCO3)C2C=CS(=O)(=O)C2)cc1 (stereo not shown)	-66.2
COc1ccc(S(=O)(=O)N(C)CC(=O)N2CCN(C)CC2)cc1Cl	7.62
O=C(Nc1c2c(nn1-c1ccccc1)CS(=O)(=O)C2)c1ccco1	-9.21
O=C(Nc1ccc(Cl)cc1F)c1cc(S(=O)(=O)N2CCCCC2)ccc1F	-0.146
O=C(Cn1cnc2sc3c(c2c1=O)CCCC3)NCCC(=O)N1CCC2(CC1)OCCO2	-6.96
Cc1ccc(NC(=O)C2CCCN2S(=O)(=O)c2ccc(-c3ccc(=O)[nH]n3)s2)c(C)c1 (stereo not shown)	-15.4
Cc1c(CCC(=O)N[C@@H](CC(C)C)C(=O)O)c(=O)oc2c(C)c3oc4c(c3cc12)CCCC4	-8.19
COc1ccc(-c2cc(=O)[nH]c(=S)[nH]2)cc1	13.5
Cc1ccccc1NC(=O)c1cccc(C(=O)Nc2ccccc2C)n1	6.81
CC(=O)c1ccc(OC(C)C)c(Cc2c(O)nc(N)[nH]c2=O)c1	-4.54
Cc1c(C(=O)N2CCCCC2)c(S(=O)(=O)N2CCC(C)CC2)c(C)n1C	3.48
COc1ccccc1N=c1oc2c(OC)cccc2cc1C(=O)NCc1ccco1	-1.4
Cc1ccc(C)c(N2CCN(S(=O)(=O)c3ccc4c(c3)CC(=O)N4C)CC2)c1	-19.4
O=C(Nc1ccccc1)C(=O)Nc1ccc2c(c1)N(C(=O)C1CC1)CCC2	-5.26
CCN(CC)S(=O)(=O)c1ccc(Cc2ncc(C(F)(F)F)cc2Cl)s1	-7.16
O=C(CSCc1ccc(F)cc1)NCc1ccco1	14
CCCCCCC(C)n1[nH]c(=O)c2c(C)cc(C)nc21 (stereo not shown)	-10.9
CC(C)Oc1ccc(C(CC(=O)NCCCN(C)C)c2ccc(F)cc2)cc1 (stereo not shown)	-57.1
CCC(=O)Nc1ccc(C(=O)N/N=C/c2cc(Br)c(OC)cc2OC)cc1	12.9
CCOc1ccc2ccc(OCC)c(/C=N/n3cnnc3)c2c1	-14.8
N#Cc1c(NC(=O)Cn2c(=O)oc3ccccc32)oc(-c2ccccc2)c1-c1ccccc1	23.3

From article PMC4336329 (PLoS ONE, 2015)
